The record followed here is ChEMBL document CHEMBL4888484, “Replenishing the malaria drug discovery pipeline: Screening and hit evaluation of the MMV Hit Generation Library 1 (HGL1) against asexual blood stage Plasmodium falciparum ,using a nano luciferase reporter read-out” (2022).

About 540 (0.36%) of roughly 150,000 compounds showed an effect of 50% or more. The list shows a part of the results.

The experiment concerns Plasmodium falciparum. Put plainly: Primary screen in NF54 nanoGlo assay, in single point, at 2uM, 72h; a lower Z score goes with more inhibition. The settings on record: timepoint 72 hour. The experiment is classed as functional, Erythrocyte.
What is called % Inhibition is the relative decrease from the control value, in per cent. As for `Cc1c(C(=O)N2CCC(N3CCCS3(=O)=O)CC2)oc2ccccc12`, the “% Inhibition” value was 16% and the Z score was -1.83.
On the same counts, the results for `Cc1ccc(C)c([C@@H](NCc2ncnn2CCF)c2ccccc2)c1` are -4% and 0.5.
On the same counts, the results for `COc1ccc(NC(=O)N2C[C@@H]3C[C@H](C2)c2ccc(NS(=O)(=O)c4ccc(OC)cc4)c(=O)n2C3)cc1` are -5% and 0.71.
On the same counts, the results for `Cc1oc2ncnc(N3CCC[C@H](C(=O)NCc4cccnc4)C3)c2c1C` are -1% and 0.13.
With `Cn1c(-c2n[nH]c3c2CCCC3)nnc1N1CC[C@]2(CNC(=O)C2)C1`, the “% Inhibition” value is recorded as -13% and the Z score turned out to be 1.9.
`Cc1cccc2c1N(Cc1cnc3cnccn13)CC2`: the “% Inhibition” value worked out at 4% and the Z score is -0.37.
For `CC1CCC(NC(=O)CC(F)(F)F)CC1` (stereo unspecified), in that order: -16% and 3.07.
For `CCC[C@H](CC)NC(=O)N1CCN(C(=O)CN2CCOCC2)CC1`, in that order: -9% and 1.28.
`O=C(NCCOc1ccccc1)c1ccc(N2CCC(Cc3ccccc3)CC2)nn1`: the “% Inhibition” value is -12% and the Z score came to 1.63.
For `CN1CCO[C@@H](C(=O)NC2CCN(Cc3ccccc3)CC2)[C@@H]1c1ccccc1`, in that order: -8% and 1.06.
On the same counts, the results for `CCc1c(C(=O)NCc2ccccn2)csc1C` are -12% and 1.06.
On the same counts, the results for `COc1ccccc1-n1nc(CC(C)C)nc1[C@H]1CCOC1` are -3% and 0.26.
For `Cc1cc(Cl)cc(C)c1NC(=O)N(C)CCCc1nccn1C`, the “% Inhibition” value was -7% and the Z score came out at 1.27.
For the molecule `CCOCC(=O)N(Cc1cnc2ccccn12)C1CC1`, the “% Inhibition” value is -3% and the Z score is recorded as 0.44.
On the same counts, the results for `CC(C)(C)c1cc(N2CCO[C@@H](CCF)C2)ncn1` are 6% and -0.65.
As for `O=C(NC[C@]1(O)CCOC1)NC1CCCC1`, the “% Inhibition” value was -10% and the Z score came out at 1.17.
On the same counts, the results for `CCCc1cc(N2CCN(C(=O)c3cccc(N(C)C)c3)CC2)nc2nnc(C)n12` are -5% and 0.63.
For `Cc1cccc(-c2nc(=O)c(CCC(=O)N3CCCCC3)n[nH]2)c1`, in that order: 3% and -0.35.
On the same counts, the results for `O=C(CCC1CCCC1)N1CC(N(Cc2ccncc2)CC2CC2)C1` are -16% and 3.04.
Regarding `COc1ccc(OC)c(CNC(=O)C2CCN(S(=O)(=O)c3ccc4c(ccn4C)c3)CC2)c1`, the “% Inhibition” value is reported as -19% and the Z score came out at 2.98.
For `Cc1ccc(NC(=O)c2ccc(COc3ccc4c(c3)[C@H](c3ccccc3)N(C(=O)C(C)(C)C)CC4)o2)cc1`, in that order: -20% and 3.22.
On the same counts, the results for `CN(C(=O)Nc1c(F)cccc1Oc1ccccc1)C1CCOCC1` are -4% and 0.39.
As to `COc1ccccc1CN1CCCN(c2ccc(NC(=O)COc3ccc(Cl)cc3)cn2)CC1`, the “% Inhibition” value worked out at 17% and the Z score is -1.58.
